# Reference: PubChem BioAssay AID1159614 (National Center for Advancing Translational Sciences (NCATS), 2016)
# Hit rate of the full screen: of about 45,000 compounds, about 65 (0.1%) were called active. Calls come from the whole dose curve; as a rule, active = well fitted activation curve with a large enough effect; inconclusive = small, poorly fitted or top-dose-only effect; inactive = no such curve, though single readings can be large or run the other way. The list shows a part of the results.
# Biological target: Galactocerebrosidase (Homo sapiens) (UniProt P54803)
# UniProt P54803, sequence (P54803 whole entry, looked up): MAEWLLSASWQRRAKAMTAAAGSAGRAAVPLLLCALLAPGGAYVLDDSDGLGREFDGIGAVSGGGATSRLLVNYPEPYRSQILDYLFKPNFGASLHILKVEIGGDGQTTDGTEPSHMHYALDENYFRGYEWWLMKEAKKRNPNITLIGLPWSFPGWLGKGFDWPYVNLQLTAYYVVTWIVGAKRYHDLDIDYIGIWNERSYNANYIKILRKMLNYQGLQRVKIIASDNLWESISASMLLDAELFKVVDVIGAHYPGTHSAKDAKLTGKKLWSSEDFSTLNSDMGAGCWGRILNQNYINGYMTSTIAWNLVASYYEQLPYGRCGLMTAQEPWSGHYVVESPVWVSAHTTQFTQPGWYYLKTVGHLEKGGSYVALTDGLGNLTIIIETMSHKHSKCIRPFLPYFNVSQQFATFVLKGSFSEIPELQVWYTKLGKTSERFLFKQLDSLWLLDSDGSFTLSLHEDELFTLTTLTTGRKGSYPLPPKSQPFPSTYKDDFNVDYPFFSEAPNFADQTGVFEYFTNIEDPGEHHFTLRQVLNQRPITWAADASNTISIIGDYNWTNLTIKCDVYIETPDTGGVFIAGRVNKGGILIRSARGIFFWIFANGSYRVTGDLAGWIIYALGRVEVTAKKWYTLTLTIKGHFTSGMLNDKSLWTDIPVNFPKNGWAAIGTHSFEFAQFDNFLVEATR
# Assay: A Novel Cell-Based Assay to Identify Small Molecules for B -Galactocerebrosidase; note: 0% is about no effect; nearly all actives have a fitted effect of over 65% in size
# Conditions: 145M-Twi-hGALC-G270D cells, HMU-beta-Gal fluorescence, 48 h; series mostly up to 57.5 µM; activation: at the top concentration
# Summary of the method: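 qHTS, 1536-well; 145M-Twi-hGALC-G270D cells (WT line also made) in DMEM/F12 + 10% FBS; compound incubation on live cells; HMU-β-gal 0.1 mM final, pH 5.2, NaTC; carbonate stop; fluorescence increase = enhanced residual activity.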
row,Compound,activation
1,COc1ccc(S(=O)(=O)N(CC(=O)Nc2ccccc2Cl)Cc2ccccc2)cc1,inactive: -35.9%
2,Cc1ccc(CCNC(=O)CN2C(=O)COc3ccc(S(=O)(=O)N4CCCCCC4)cc32)cc1,inactive: 9.31%
3,Cc1ccccc1OCc1nc2ccccc2n1Cc1ccccc1Cl,inactive: -9.52%
4,COc1ccc(C2=NS(=O)(=O)N(C)C(C(=O)N(C)Cc3ccccc3)=C2)cc1OC,inactive: -8.89%
5,Cc1cccc(Nc2ccncc2S(=O)(=O)NC(=O)NC(C)C)c1,inactive: -13.8%
6,CCS(=O)(=O)N1CCc2cc(C(=O)Nc3cccc(C(C)=O)c3)ccc21,inactive: -11.7%
7,CCCCN(CC)C(=O)CCNS(=O)(=O)c1ccc2c(c1)c(=O)n(C)c(=O)n2C,inactive: -15.9%
8,CCCOc1cccc(C2c3c(-c4ccccc4O)n[nH]c3C(=O)N2Cc2ccco2)c1 (stereo not drawn),inactive: -16.7%
9,CC(C)CCn1c(Oc2ccccc2F)nc2c1c(=O)n(C)c(=O)n2C,inactive: -5.47%
10,CC(=O)c1ccc(NC(=O)CSc2cn(CC(=O)N(C(C)C)C(C)C)c3ccccc23)cc1,inactive: -4.21%
11,COC(=O)c1ccc(C(=O)OC)c(NC(=O)c2cc3nc(-c4ccc(C)cc4)cc(C(F)(F)F)n3n2)c1,inactive: -39.2%
12,CCCn1cnc2cc(NCc3ccccc3OCC)ccc21,inactive: -21.1%
13,CCn1c(C(=O)NCc2ccccc2Br)cc2oc3ccccc3c21,inactive: -15.9%
14,CCCNC(=O)Cn1c(=O)c2cccn2c2cccnc21,inactive: 7.19%
15,CCCNC(=O)C1Cc2cc(S(=O)(=O)N3CCCCCC3)ccc2N1C(C)=O (stereo not drawn),inactive: -12.7%
16,COc1ccc(C(=O)NCc2ccc3c(c2)CCN3C(=O)c2ccccc2)cc1,inactive: -9.02%
17,COCCCNC(=O)c1sc2nc(C)c(C(=O)Nc3ccc(C)cc3C)c(-c3ccccc3Cl)c2c1N,inactive: -13.2%
18,CCCNC(=O)CCCN1C(=O)CCn2nc(-c3cccn3C)cc21,inactive: -14.4%
19,CCc1ccc2oc(-c3ccc(NC(=O)c4cc5ccccc5o4)cc3)nc2c1,inactive: -13.6%
20,COCCNC(=O)c1nn(-c2ccc(C)cc2)c(=O)n(C)c1=O,inactive: -7.92%
21,COc1ccc(NS(=O)(=O)c2ccc(-c3cnc(C4CC4)o3)cc2)cc1Cl,inactive: -6.34%
22,Cc1ccc(Cl)cc1N1CCN(C(=O)c2ccc(CS(=O)c3ccccc3)o2)CC1 (stereo not drawn),inactive: 1.95%
23,Cc1cc(C)cc(Nc2cc(C(=O)NCCCN(C)C3CCCCC3)c3ccccc3n2)c1,inactive: -19%
24,O=C(CCSCc1cnn(-c2ccccc2)c1-n1cccc1)NCc1ccccc1Cl,inactive: -15.5%

row,Compound,activation
1,COCCNC(=O)CCc1c(C)n(C)c2cc(-c3cc(OC)c(OC)c(OC)c3)nn2c1=O,inactive: 5.6%
2,CC1CCN(S(=O)(=O)c2ccc3nc(NCc4ccccc4)ccc3c2)CC1,inactive: 0.392%
3,COc1ccc(C(CNC(=O)c2oc3cc(C)c(Cl)cc3c2C)N2CCCCC2)cc1 (stereo not drawn),inactive: -28.9%
4,COc1cccc(Nc2nc3ccccc3c3nncn23)c1,inactive: -9.99%
5,Cn1c(SCc2cc(=O)c3cc(Cl)ccc3[nH]2)nnc1-c1ccccc1,inactive: 0.609%
6,Cn1c(=O)c(=O)n(C)c2cc(C(=O)NCc3ccccc3Cl)ccc21,inactive: -12.7%
7,O=C(Cn1nc(-c2ccc(Cl)cc2)c2ccccc2c1=O)Nc1cccc(C(F)(F)F)c1,inactive: -1.92%
8,COC(=O)c1scc(-c2ccc(C)cc2)c1S(=O)(=O)N1CCN(c2ccc(C)cc2C)CC1,inactive: -13.1%
9,CCc1cnc2c(c1SCC(=O)NCc1ccc(C)cc1)c(=O)n(C)c(=O)n2C,inactive: -7.16%
10,Cc1ccc(CNC(=O)C2CCN(S(=O)(=O)c3ccc4nc5c(c(C(=O)O)c4c3)CC(C)CC5)CC2)cc1 (stereo not drawn),inactive: -4.53%
11,Cc1ccccc1OCC(=O)Nc1ccc(-c2nc3cc(Cl)cc(Cl)c3o2)cc1,inactive: -9.04%
12,CCCSc1ncc(Cl)c(C(=O)N(Cc2ccccc2)c2ccc(OC)cc2)n1,inactive: -7.05%
13,COc1cccc(NC(=O)N(CCC(C)C)C2CCN(C(C)C)CC2)c1,inactive: -7.31%
14,Cn1ccc2c(OCC(=O)Nc3ccc(OC(F)(F)F)cc3)cccc2c1=O,inactive: -26.4%
15,CC(=O)c1ccc(NS(=O)(=O)c2ccc(Br)s2)cc1,inactive: -10.6%
16,C[C@@H](N)C(=O)O,inactive: -11.3%
17,CC(C)(C)C1CCc2c(sc(NC(=O)c3ccco3)c2C(=O)Nc2ccccc2Cl)C1 (stereo not drawn),inactive: -39.7%
18,COc1cc2nc(SCC(=O)Nc3ccccc3C)n3nc(CCn4c(C)nc5ccccc54)nc3c2cc1OC,inactive: 0.0274%
19,CCOc1ccc(C(=O)OCc2cc(=O)n3nc(C4CC4)sc3n2)cc1,inactive: -5.5%
20,CCn1cc(C(=O)N2CCN(c3cc(Cl)ccc3C)CC2)c(=O)c2cc(S(=O)(=O)N3CCCC3)ccc21,inactive: -11.2%
21,COc1cc(Cl)c(C)cc1NC(=O)c1cc2c(=O)oc3ccccc3c2s1,inactive: -10.9%
22,Cc1cc(C(=O)N2CCN(c3cccc(Cl)c3)CC2)c2c(C)nn(-c3ccccc3Cl)c2n1,inactive: -39.1%
23,COc1ccc(CNC(=O)C2=CC(c3ccc(OC)c(OC)c3)=NS(=O)(=O)N2C)cc1,inactive: -7.7%
24,CCOCCCNC(=O)c1cn(CC)c2ccc(S(=O)(=O)N3CCOCC3)cc2c1=O,inactive: -13.6%
